# Measured values published in the supplement of paper PMC8728848.
# This is one part of the list.
# B1: HML-Native (Hypnea musciformis), P84871 (protein)
# chain: QKFCTLDIAPVCCQIVIGGGMYTAGNACMCEGFVSGVGRCENPKECPCTREAQIPSCCSSRWGLVSVTGKCACDCLGGTVAFPEPCPSPY
# What was measured:
# Test in all cases: glycan array binding signal (z-score within array); higher = stronger binding
# Conditions in all cases: glycan notation: IUPAC condensed, linker removed
# [1] = molecular target: Gal3S(b1-3)[Fuc(a1-4)]GlcNAc
# In short: (§1)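 Arrays were curated from the Consortium for Functional Glycomics database, 3228 in total, and kept only where the protein sequence was available. Binding is expressed as a within-array Z-score. This score was averaged across arrays of the same protein sequence at different concentrations or buffers and across linkers, and negative values can be read as non-binding.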
# [2] = molecular target: Gal3S(b1-4)Glc
# In short: as §1
# [3] = molecular target: Gal3S(b1-4)Glc6S
# In short: as §1
# [4] = molecular target: Gal3S(b1-4)GlcNAc
# In short: as §1
# [5] = molecular target: Gal3S(b1-4)[Fuc(a1-3)]Glc6S
# In short: as §1
# [6] = molecular target: Gal3S(b1-4)[Fuc(a1-3)]GlcNAc
# In short: as §1
# [7] = molecular target: Gal3S(b1-4)[Fuc(a1-3)]GlcNAc6S
# In short: as §1
# [8] = molecular target: Gal3S4S(b1-4)GlcNAc
# In short: as §1
# [9] = molecular target: Gal3S6S(b1-4)GlcNAc
# In short: as §1
# [10] = molecular target: Gal3S6S(b1-4)GlcNAc6S
# In short: as §1
# [11] = molecular target: Gal4S(b1-4)GlcNAc
# In short: as §1
# [12] = molecular target: Gal4S6S(b1-4)GlcNAc
# In short: as §1
# [13] = molecular target: Gal6P(b1-4)GlcNAc
# In short: as §1
# [14] = molecular target: Gal6S(b1-3)GlcNAc
# In short: as §1
# [15] = molecular target: Gal6S(b1-3)GlcNAc6S
# In short: as §1
# [16] = molecular target: Gal6S(b1-4)Glc
# In short: as §1
# [17] = molecular target: Gal6S(b1-4)Glc6S
# In short: as §1
# [18] = molecular target: Gal6S(b1-4)GlcNAc
# In short: as §1
# [19] = molecular target: Gal6S(b1-4)GlcNAc6S
# In short: as §1
# [20] = molecular target: GalNAc(a1-3)Gal
# In short: as §1
# [21] = molecular target: GalNAc(a1-3)GalNAc
# In short: as §1
# [22] = molecular target: GalNAc(a1-3)GalNAc(b1-3)Gal(a1-4)Gal(b1-4)Glc
# In short: as §1
# [23] = molecular target: GalNAc(a1-3)GalNAc(b1-3)Gal(a1-4)Gal(b1-4)GlcNAc
# In short: as §1
# [24] = molecular target: GalNAc(b1-3)Gal
# In short: as §1
# [25] = molecular target: GalNAc(b1-3)Gal(a1-4)Gal(b1-4)GlcNAc
# In short: as §1
# [26] = molecular target: GalNAc(b1-3)Gal(a1-4)Gal(b1-4)GlcNAc(b1-3)Gal(b1-4)Glc
# In short: as §1
# [27] = molecular target: GalNAc(b1-3)Gal(a1-6)Gal(b1-4)Glc
# In short: as §1
# [28] = molecular target: GalNAc(b1-3)GalNAc
# In short: as §1
# [29] = molecular target: GalNAc(b1-3)GlcNAc
# In short: as §1
# [30] = molecular target: GalNAc(b1-4)Gal(b1-4)Glc
# In short: as §1
# [31] = molecular target: GalNAc(b1-4)GlcNAc
# In short: as §1
# [32] = molecular target: GalNAc(b1-4)GlcNAc(b1-2)Man
# In short: as §1
# [33] = molecular target: GalNAc(b1-4)GlcNAc(b1-2)Man(a1-3)[GalNAc(b1-4)GlcNAc(b1-2)Man(a1-6)]Man(b1-4)GlcNAc(b1-4)GlcNAc
# In short: as §1
# [34] = molecular target: GalNAc(b1-4)GlcNAc(b1-3)GalNAc(b1-4)GlcNAc
# In short: as §1
# [35] = molecular target: GalNAc(b1-4)GlcNAc6S
# In short: as §1
# [36] = molecular target: GalNAc(b1-6)GalNAc
# In short: as §1
# [37] = molecular target: GalNAc3S(b1-4)GlcNAc
# In short: as §1
# [38] = molecular target: GalNAc3S(b1-4)GlcNAc3S
# In short: as §1
# [39] = molecular target: GalNAc3S(b1-4)[Fuc(a1-3)]GlcNAc
# In short: as §1
# [40] = molecular target: GalNAc4S6S(b1-4)GlcNAc
# In short: as §1
# [41] = molecular target: GalNAc6S(b1-4)GlcNAc
# In short: as §1
# [42] = molecular target: Glc(a1-4)Glc
# In short: as §1
# [43] = molecular target: Glc(a1-4)Glc(a1-4)Glc(a1-4)Glc
# In short: as §1
# [44] = molecular target: Glc(a1-6)Glc(a1-6)Glc
# In short: as §1
# [45] = molecular target: Glc(a1-6)Glc(a1-6)Glc(a1-6)Glc
# In short: as §1
binder,measurement,setting,value
B1,glycan array binding signal (z-score),[1],-0.257
same,glycan array binding signal (z-score),[2],-0.273
same,glycan array binding signal (z-score),[3],-0.255
same,glycan array binding signal (z-score),[4],-0.233
same,glycan array binding signal (z-score),[5],-0.071
same,glycan array binding signal (z-score),[6],-0.149
same,glycan array binding signal (z-score),[7],-0.18
same,glycan array binding signal (z-score),[8],-0.298
same,glycan array binding signal (z-score),[9],-0.291
same,glycan array binding signal (z-score),[10],-0.236
same,glycan array binding signal (z-score),[11],-0.172
same,glycan array binding signal (z-score),[12],-0.324
same,glycan array binding signal (z-score),[13],-0.305
same,glycan array binding signal (z-score),[14],-0.257
same,glycan array binding signal (z-score),[15],-0.323
same,glycan array binding signal (z-score),[16],-0.268
same,glycan array binding signal (z-score),[17],-0.246
same,glycan array binding signal (z-score),[18],-0.239
same,glycan array binding signal (z-score),[19],-0.216
same,glycan array binding signal (z-score),[20],-0.183
same,glycan array binding signal (z-score),[21],-0.182
same,glycan array binding signal (z-score),[22],-0.369
same,glycan array binding signal (z-score),[23],-0.217
same,glycan array binding signal (z-score),[24],-0.265
same,glycan array binding signal (z-score),[25],-0.139
same,glycan array binding signal (z-score),[26],-0.151
same,glycan array binding signal (z-score),[27],-0.345
same,glycan array binding signal (z-score),[28],-0.279
same,glycan array binding signal (z-score),[29],-0.26
same,glycan array binding signal (z-score),[30],-0.252
same,glycan array binding signal (z-score),[31],-0.077
same,glycan array binding signal (z-score),[32],-0.213
same,glycan array binding signal (z-score),[33],-0.076
same,glycan array binding signal (z-score),[34],-0.287
same,glycan array binding signal (z-score),[35],-0.291
same,glycan array binding signal (z-score),[36],-0.284
same,glycan array binding signal (z-score),[37],-0.283
same,glycan array binding signal (z-score),[38],-0.155
same,glycan array binding signal (z-score),[39],-0.195
same,glycan array binding signal (z-score),[40],-0.333
same,glycan array binding signal (z-score),[41],-0.196
same,glycan array binding signal (z-score),[42],-0.274
same,glycan array binding signal (z-score),[43],-0.157
same,glycan array binding signal (z-score),[44],-0.272
same,glycan array binding signal (z-score),[45],-0.231
